The whole screen tested about 150,000 compounds, of which about 540 (0.36%) showed an effect of 50% or more. Some of the results follow.
Test system: Plasmodium falciparum
Assay: Primary screen in NF54 nanoGlo assay, in single point, at 2uM, 72h; a lower Z score goes with more inhibition
Type: functional, Erythrocyte
Conditions: timepoint 72 hour

Structure (SMILES) | % Inhibition [%] | Z score
COc1ccc(NC(=O)[C@H](C)n2nc(-c3ccccc3)c3c(c2=O)CCCC3)cc1 | -7 | 1
Clc1ccc([C@@H](Nc2ccc3nnnn3n2)c2ccsc2)cc1 | -2 | 0.24
N#Cc1nccnc1N1CCc2ccc(O)cc2C1 | 7 | -1.01
CCN(C[C@H]1CCCCO1)S(=O)(=O)Cc1ccc(Cl)cc1 | -4 | 0.54
CCc1[nH]c(=O)sc1S(=O)(=O)NCC1(CC)CC1 | -9 | 0.97
Oc1ccccc1C1=Nc2ccccc2C(c2ccccc2)(c2ccccc2)O1 | 27 | -3.1
Cc1c(C(=O)N2CCCC[C@H]2c2ncon2)ccn1C | -42 | 4.94
Cc1cc(C)c(C(=O)NCCN2C(=O)COC2=O)c(C)c1 | 1 | -0.22
Cc1nc(C)c(C)c(NCC2(S(N)(=O)=O)CCC2)n1 | 2 | -0.47
Cc1cc(Cn2c(=O)n(Cc3ccccc3)c3ccncc32)on1 | 30 | -0.64
Cc1cc(CS(=O)(=O)Nc2ccc(F)cn2)no1 | 0 | 0
CC1(C)CCc2nnc(-c3ccccc3)n2C1 | 7 | -0.91
COCC[C@H](C)N1CCC2(CC1)CN(CCc1ccccc1)C(=O)O2 | 11 | -1.65
CC1CN(Cc2ccccn2)CCC1Nc1ccc(OC(F)F)cn1 (stereo not drawn) | -4 | 0.34
Cc1cc(C(=O)Nc2ccc(N3CCNC(=O)C3)nc2)c(C)n1Cc1ccccn1 | -14 | 2.64
COc1ccnc(CN2C[C@H](C)[C@@](O)(C3CC3)C2)c1 | -15 | 2.25
CC(C)OC[C@@H](O)CN1CCCCC1 | -4 | 0.56
CC1CCN(S(=O)(=O)[C@H]2CCS(=O)(=O)C2)CC1 | -12 | 1.39
C#Cc1cccc(NC(=O)C(=O)NCc2nc(-c3ccco3)n[nH]2)c1 | -7 | 0.85
CCCc1ccc(OCc2ccc(C(=O)n3cc(Cl)cn3)o2)cc1 | -1 | 0.14
C#Cc1cc(F)c(NC(=O)N[C@@H](C)Cc2c(C)noc2C)c(F)c1 | 0 | -0.02

Structure (SMILES) | % Inhibition [%] | Z score
Cc1ccc(F)cc1NC(=O)Cn1cnc2nc(N3CCOCC3)sc2c1=O | -2 | 0.29
COCCC1(CNC(=O)N[C@@H]2CC=CCC2)CCC1 | 1 | -0.13
CC(C)n1ncc2cc(CN3[C@@H]4C[C@H]5CC[C@]4(CS3(=O)=O)C5(C)C)cnc21 | -7 | 0.59
O=C(NC[C@H]1CCOC1)c1cccc(-c2c[nH]c(C(=O)N3CCOCC3)c2)c1 | -3 | 0.51
CCCS(=O)(=O)c1c(S(=O)(=O)CCC)c2c3ccccc3ccn2c1C(=O)c1ccc(F)cc1 | -1 | 0.09
COCCN(CCS(=O)(=O)c1ccccc1)C1CCCC1 | -22 | 3
CC1(C)CC(=O)N(CCCO[C@@H]2CCCCO2)C1=O | -10 | 1.25
CCOC(=O)Nc1cc(NC(=O)OCC)c(N2CCCC2=O)cc1C | -1 | 0.07
CCS(=O)(=O)NCC(=O)NCc1cc2c(s1)CCCCC2 | 5 | -0.58
O=C(c1cc(-c2cccnc2)nc2ccccc12)N1CCN(c2ccccc2)CC1 | -7 | 1.33
O=C(c1ccc2c(c1)OCCO2)N1CCN(c2ncccn2)CC1 | -15 | 2.87
Cc1ccc(C(=O)OCC(=O)NC(=O)Nc2ccccc2F)cn1 | -9 | 1.72
COc1ccccc1-n1cnc2cc(C(=O)N3CCCC3)ccc2c1=O | 36 | -4.04
COCCOCC(=O)N1CC(Oc2ccccc2-c2nc(C3CC3)no2)C1 | 0 | 0.04
NC(=O)C1CCN(C(=O)c2nc[nH]c2C(=O)NCc2ccccc2)CC1 | -1 | 0.13
CC[C@@]1(C)CN(C(=O)Nc2ccc(C)c(-c3ncco3)c2)CCO1 | -1 | 0.05
Cc1nc(N(C)C)nc(-c2cccc(C(=O)NCc3n[nH]c(=O)[nH]3)c2)c1C | 7 | -0.85
Cc1ccnc(N2CCC[C@H]2c2noc(C)n2)n1 | -1 | 0.08
C=CCn1c(=O)c2ccccc2n(CC(=O)NC2CCCCC2)c1=O | 31 | -3.55
O=C1CCN(Cc2ccc(C(F)(F)F)cc2)CCC[C@H](C(=O)N2CCN(c3ccccn3)CC2)CCN1 | -17 | 2.14
COc1ccc2[nH]c(CN3CCN(c4cc(O)nc(N)n4)CC3)c(C)c2c1 | -5 | 0.9

Structure (SMILES) | % Inhibition [%] | Z score
Cc1[nH]ccc1C(=O)Nc1ccccc1-c1cc(F)c(F)c(F)c1 | 1 | -0.17
O=C(c1cc2ccc(Cl)cc2[nH]1)N1CC(O)CC1c1cccc(F)c1 (stereo not drawn) | -9 | 0.89
Cc1ccc(C(=O)N2CCC(Cc3ccc(CN4CCCCC4)cc3)CC2)cn1 | -5 | 0.97
CCOc1ncccc1CNC(=O)c1ccc([C@H](C)N2CCCCC2)o1 | -12 | 1.12
CC(Cn1cccn1)NC(c1ccc(Cl)cc1)C1CN(C)CCO1 (stereo not drawn) | -3 | 0.3
Cc1cc2sc(NC(=O)N3CCC(C(C)O)C3)nc2s1 (stereo not drawn) | -13 | 1.58
COc1ccccc1NC(=O)[C@H]1Nc2cc(C(F)(F)F)ccc2S(=O)(=O)N1 | -6 | 1.05
O=C(CCn1nc2ccccn2c1=O)NCCCc1nccs1 | -2 | 0.21
COc1ccc(-c2nc(-c3ccc(Cl)cc3)c(NC(=O)c3ccccc3)s2)cc1OC | -1 | 0.19
Cn1nnc2c1C[C@@H](NC(=O)C(C)(C)N1CCOCC1)CC2 | -9 | 1.19
CCN(Cc1nc2cc(Cl)ccc2c(=O)[nH]1)C(=O)Cc1ccccc1C | -13 | 2.42
CCOCC(=O)Nc1cc(C)nn1[C@H]1CCN(Cc2ccccc2)C1 | -5 | 0.75
CC[C@@](C)(CCO)NCc1cccn1C | 2 | -0.34
CCc1cc(-c2c(C#N)c(N)nc3c2COCC3)[nH]n1 | 1 | -0.18
CCOCCOc1nc(-c2cccc(OC)c2)n(-c2ccc(NC(=O)Nc3cccc(OC)c3)cc2)n1 | 6 | -0.67
O=C(CN1CCC(O)(c2cccc3cnccc23)CC1)NCC1CC1 | -2 | 0.33
CC1CN(C(=O)Cc2noc(C=CC3(C)CCOCC3)n2)CC(C)O1 (stereo not drawn) | -9 | 1.92
CN1CCN([C@H]2CCN(c3ccc4ccccc4n3)C2)CC1 | 1 | -0.18
CN(CC#CCNC(=O)Cc1ccc(F)cc1)Cc1ccccc1 | -2 | 0.19
Cc1noc(C)c1C(=O)Nc1ncnn1C(C)(C)C | -12 | 2.22
COc1nc2c(c(C)nn2-c2ccc(C)cc2)c(C)c1CCC(=O)NCc1cccc(Cl)c1 | -8 | 1.13

Structure (SMILES) | % Inhibition [%] | Z score
CC(=O)Nc1c(C)noc1/C=C\c1ccc(S(=O)(=O)Nc2ccc(C)c(C)c2)cc1 | -6 | 0.92
CCC(=O)N1CCC(C(NC(=O)c2ccc(OC)cc2)C(=O)NC(C)C(C)C)CC1 (stereo not drawn) | -3 | 0.47
C[C@H](C(=O)N(Cc1ccncc1)C1CC1)c1ccccc1 | 11 | -1.32
COc1cccc(C(=O)N(Cc2c(-c3cccc(C)c3)noc2N2CCOCC2)C2CC2)c1 | 27 | -3.65
O=C1NCCc2cc(OCc3noc(-c4cccs4)n3)ccc21 | -13 | 1.67
O=C(O)C[C@@H]1CCN(C(=O)COc2ccccc2)C[C@@H]1Cc1nc2ccccc2[nH]1 | 10 | -1.55
CCN(CC)C(=O)Cn1ncn2nc(-c3cccc4ccccc34)cc2c1=O | -10 | 1.33
O=C(c1csc2ccccc12)N1CCCCCCC1 | -11 | 1.52
CCn1nccc1C(=O)N1CCc2c(c(NC(=O)c3ccccc3)nn2C)C1 | 4 | -0.35
CCN(C)c1ccccc1CNC(=O)N[C@@H](C)c1ncc(C)s1 | -6 | 0.81
CC[C@H](C)N(Cc1ccc(OS(=O)(=O)C(C)C)cc1)C(=O)C(C)C | -9 | 1.32
COc1cc2c(cc1CN(C)Cc1cc(C3CC3)[nH]n1)OCCCO2 | -12 | 2.35
Cc1ocnc1CNC(=O)N1CCC[C@H]1COc1ccc(F)cc1 | -9 | 1.6
Cc1n[nH]c(C)c1NC(=O)Nc1ncc(Cc2ccccc2)s1 | -2 | 0.24
c1c[nH]c(-c2nc(C3CCOCC3)n[nH]2)c1 | -6 | 1.12
CN(Cc1ccccc1OCCCn1ccnc1)[C@H]1COC[C@@H]1O | -1 | 0.08
Cc1nc(C)n(CCNc2nc3c(s2)c(C)nn3C)n1 | -2 | 0.33
CCOc1cccc(S(=O)(=O)N(C)c2ccc(C)nn2)c1 | -9 | 0.97
CCc1c(C)c(C(=O)N2CCOCC2)n(Cc2ccc(F)c(F)c2)c1C | -16 | 1.59
COc1ccccc1CCNC(=O)C1CN(c2nc3c(F)cccc3s2)C1 | -1 | 0.17
O=C(CN(C[C@H]1CCCO1)C(=O)c1ccc(Cl)c(Cl)c1)N(Cc1ccc(F)cc1)Cc1cccs1 | -4 | 0.39
